Some of the results follow. Single values are uncertain, as repeats are few or missing.
Assays:
Assay in all cases: cell count relative to DMSO control; melanoma cells; higher = more viable cells
Conditions in all cases: library dose: standard library concentration; 72 h
G361 = test system: G361
IPC-298 = test system: IPC-298
IST-MEL1 = test system: IST-MEL1
LB2518-MEL = test system: LB2518-MEL
LOXIMVI = test system: LOXIMVI
MEL-HO = test system: MEL-HO
MZ2-MEL = test system: MZ2-MEL
MeWo = test system: MeWo
RPMI7951 = test system: RPMI7951
RVH-421 = test system: RVH-421
SkMel28 = test system: SkMel28
SkMel2 = test system: SkMel2
SkMel30 = test system: SkMel30
SkMel5 = test system: SkMel5
UACC257 = test system: UACC257
UACC62 = test system: UACC62
WM115 = test system: WM115
WM1716 = test system: WM1716
WM1745 = test system: WM1745
WM3526 = test system: WM3526
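Note: cells treated in 1,536-well plates, then fixed and DAPI-stained, with nuclei counted from automated high-throughput microscope images.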

| Structure (SMILES) | cell count (G361) [%] | cell count (IPC-298) [%] | cell count (IST-MEL1) [%] | cell count (LB2518-MEL) [%] | cell count (LOXIMVI) [%] | cell count (MEL-HO) [%] | cell count (MZ2-MEL) [%] | cell count (MeWo) [%] | cell count (RPMI7951) [%] | cell count (RVH-421) [%] | cell count (SkMel28) [%] | cell count (SkMel2) [%] | cell count (SkMel30) [%] | cell count (SkMel5) [%] | cell count (UACC257) [%] | cell count (UACC62) [%] | cell count (WM115) [%] | cell count (WM1716) [%] | cell count (WM1745) [%] | cell count (WM3526) [%] |
| --- | --- | --- | --- | --- | --- | --- | --- | --- | --- | --- | --- | --- | --- | --- | --- | --- | --- | --- | --- | --- |
| O=C(O)[C@@H]1[O][Sb](=[O])([O][Sb]2(=[O])[O][C@H]([C@H](O)CO)[C@H](O)[C@H](C(=O)O)[O]2)[O][C@H]([C@H](O)CO)[C@@H]1O (stereo not given in full) [stibogluconate] + NCC(=O)Nc1ccc(-n2nc(C(F)(F)F)cc2-c2ccc3c(ccc4ccccc43)c2)cc1 [OSU03012] (first compound 10 µM, partner dose 5 µM) | 73.8 | 54.3 | 70.7 | 83.6 | 84.4 | 85.3 | 93.2 | 113 | 96 | 93.3 | 24.8 | 37.7 | 33.6 | 65.6 | 75.6 | 61.6 | 81.2 | 81.4 | 100 | 39.5 |
| Cn1nnc2c(C(N)=O)ncn2c1=O [temozolomide] + Oc1cc(-c2nc(-c3ccccc3)[nH]c2-c2ccncc2)ccc1Cl [L779450] (first compound 10 µM, partner dose 1 µM) | 66 | 95.1 | 80.6 | 86.9 | 91.8 | 84 | 88.3 | 79.9 | 84.5 | 74.3 | 34.1 | 31.8 | 68.6 | 79.2 | 99.7 | 56.7 | 59.6 | 53.9 | 61.7 | 59.1 |
| O=C(O)c1ccc2c(c1)nc(Nc1cccc(Cl)c1)c1ccncc12 + C=C(c1ccc(C(=O)O)cc1)c1cc2c(cc1C)C(C)(C)CCC2(C)C [Bexarotene] (first compound 2 µM, partner dose 10 µM) | 58.8 | 54.7 | 70.7 | 103 | 55.1 | 57.9 | 63.8 | 71.4 | 68.4 | 82.5 | 58.7 | 66.9 | 74.2 | 77.9 | 85.1 | 57.7 | 70.8 | 91.2 | 54.4 | 66.1 |
| O=C(O)[C@@H]1[O][Sb](=[O])([O][Sb]2(=[O])[O][C@H]([C@H](O)CO)[C@H](O)[C@H](C(=O)O)[O]2)[O][C@H]([C@H](O)CO)[C@@H]1O (stereo not given in full) [stibogluconate] + CC(=O)c1c(C)c2cnc(Nc3ccc(N4CCNCC4)cn3)nc2n(C2CCCC2)c1=O [palbociclib] (first compound 10 µM, partner dose 0.2 µM) | 63.2 | 76.7 | 73.5 | 47.5 | 57.4 | 65 | 69.2 | 52.3 | 57.8 | 61.9 | 35.6 | 57.4 | 64.4 | 54.9 | 85.5 | 59.3 | 46.3 | 39.2 | 67.7 | 54.2 |
| O=C(O)c1ccc2c(c1)nc(Nc1cccc(Cl)c1)c1ccncc12 + CC(C)(C)c1cnc(CSc2cnc(NC(=O)C3CCNCC3)s2)o1 [SNS-032] (first compound 2 µM, partner dose 0.05 µM) | 56.1 | 69.6 | 79 | 75.4 | 32.3 | 63.5 | 60.2 | 71.2 | 21.1 | 65 | 41.3 | 62.9 | 66.9 | 61.5 | 87.8 | 55.6 | 75.9 | 54.8 | 30.7 | 73.1 |
| Cc1cc(N2CCOCC2)cc2[nH]c(-c3c(NC[C@@H](O)c4cccc(Cl)c4)cc[nH]c3=O)nc12 + Cc1cc([N+](=O)[O-])ccc1NS(=O)(=O)c1cc(Cl)ccc1Cl [FH535] (first compound 1 µM, partner dose 5 µM) | 40.3 | 49.5 | 61 | 101 | 65.7 | 43.4 | 68.2 | 57.2 | 77.6 | 71.5 | 54.2 | 73.4 | 83.9 | 46.2 | 63.1 | 79.5 | 72.8 | 83.7 | 55.7 | 66 |
| Cn1nnc2c(C(N)=O)ncn2c1=O [temozolomide] + COc1ccc(-c2ccc3c(N4CCOCC4)nc(N4C[C@@H](C)O[C@@H](C)C4)nc3n2)cc1CO [KU0063794] (first compound 10 µM, partner dose 0.1 µM) | 68.9 | 61.4 | 91.3 | 79 | 77.9 | 87 | 13.3 | 89.4 | 92 | 94.7 | 40.9 | 93.3 | 64.9 | 57.6 | 81.1 | 91.7 | 80.2 | 51.8 | 96.1 | 99 |
| O=C(O)c1ccc2c(c1)nc(Nc1cccc(Cl)c1)c1ccncc12 + CCCS(=O)(=O)Nc1ccc(F)c(C(=O)c2c[nH]c3ncc(Cl)cc23)c1F [PLX4720] (first compound 2 µM, partner dose 0.4 µM) | 35.4 | 56 | 67.6 | 94.7 | 57.8 | 41.4 | 53.4 | 75.3 | 73.9 | 65.2 | 43.4 | 73.7 | 69.5 | 64.6 | 65.5 | 49.2 | 76.8 | 73.3 | 66.9 | 35.2 |
| O=C(O)c1ccc2c(c1)nc(Nc1cccc(Cl)c1)c1ccncc12 + C[C@]1(c2nc3c(C(N)=O)cccc3[nH]2)CCCN1 [Veliparib] (first compound 2 µM, partner dose 7 µM) | 62.2 | 72.7 | 75.8 | 79.7 | 41.2 | 53 | 67 | 95.9 | 76.8 | 69.2 | 75 | 67.5 | 74.5 | 73.3 | 89.3 | 55.5 | 93.6 | 79.8 | 61.9 | 65 |
| O=C(Nc1cc(C(F)(F)F)cc(C(F)(F)F)c1)c1cc(Cl)ccc1O + O=C(CCCCCCC(=O)Nc1ccccc1)NO [vorinostat] (first compound 0.08 µM, partner dose 0.4 µM) | 75.1 | 83.9 | 86 | 81.5 | 75.5 | 82.1 | 89.7 | 70.5 | 70.9 | 89.5 | 44.3 | 68.3 | 78.7 | 51.8 | 60.5 | 83.5 | 66.2 | 80.8 | 66.6 | 76.3 |
| O=C(O)[C@@H]1[O][Sb](=[O])([O][Sb]2(=[O])[O][C@H]([C@H](O)CO)[C@H](O)[C@H](C(=O)O)[O]2)[O][C@H]([C@H](O)CO)[C@@H]1O (stereo not given in full) [stibogluconate] + Nc1nc(F)nc2c1ncn2[C@@H]1O[C@H](CO)[C@@H](O)[C@@H]1O [fludarabine] (first compound 10 µM, partner dose 1 µM) | 82.3 | 76.8 | 74.8 | 91.5 | 132 | 76 | 93.5 | 79.9 | 52.6 | 105 | 4.94 | 1.58 | 24.6 | 40.2 | 43 | 105 | 75.6 | 93 | 94.6 | 20 |
| Cn1nnc2c(C(N)=O)ncn2c1=O [temozolomide] + CC(C)(C)c1cnc(CSc2cnc(NC(=O)C3CCNCC3)s2)o1 [SNS-032] (first compound 10 µM, partner dose 0.05 µM) | 102 | 103 | 82.2 | 85.5 | 51.7 | 109 | 99.8 | 100 | 41.5 | 83.7 | 36.7 | 92.5 | 91.8 | 75.5 | 114 | 64.7 | 120 | 62.5 | 72.2 | 91.4 |
| Cc1cc(N2CCOCC2)cc2[nH]c(-c3c(NC[C@@H](O)c4cccc(Cl)c4)cc[nH]c3=O)nc12 + COc1ccc2c(c1)CCC1C2CCC2(C)C(NCCCCCCN3C(=O)C=CC3=O)CCC12 [U73122] (first compound 1 µM, partner dose 2 µM) | 77.6 | 101 | 84.7 | 120 | 96.7 | 92.6 | 113 | 56.3 | 41.8 | 88.8 | 71.6 | 83.8 | 60.7 | 70.7 | 83.6 | 61.9 | 79.7 | 92.8 | 63.2 | 82.5 |
| Cn1nnc2c(C(N)=O)ncn2c1=O [temozolomide] + N#Cc1c(O)c2c(-c3ccc(-c4ccccc4O)cc3)csc2[nH]c1=O [A769662] (first compound 10 µM, partner dose 10 µM) | 101 | 77.5 | 83.2 | 95.2 | 105 | 94.6 | 77.5 | 101 | 107 | 104 | 30.3 | 116 | 65.7 | 101 | 112 | 56.4 | 104 | 60.2 | 95.7 | 107 |
| Cn1nnc2c(C(N)=O)ncn2c1=O [temozolomide] + NCC(=O)Nc1ccc(-n2nc(C(F)(F)F)cc2-c2ccc3c(ccc4ccccc43)c2)cc1 [OSU03012] (first compound 10 µM, partner dose 5 µM) | 76.9 | 52.7 | 78.3 | 78 | 78.5 | 78.8 | 63.6 | 98.6 | 104 | 68.8 | 30.5 | 33.1 | 64.1 | 72.5 | 66.7 | 42.6 | 75.1 | 60.7 | 110 | 38.2 |
| O=C(O)[C@@H]1[O][Sb](=[O])([O][Sb]2(=[O])[O][C@H]([C@H](O)CO)[C@H](O)[C@H](C(=O)O)[O]2)[O][C@H]([C@H](O)CO)[C@@H]1O (stereo not given in full) [stibogluconate] + Nc1ccn([C@@H]2O[C@H](CO)[C@@H](O)C2(F)F)c(=O)n1 [gemcitabine] (first compound 10 µM, partner dose 0.002 µM) | 27.6 | 40.4 | 36.2 | 55.7 | 58.3 | 53.3 | 96.7 | 39.7 | 58 | 42.1 | 96.2 | 88.3 | 109 | 82.8 | 115 | 72.2 | 51.2 | 42.3 | 39.8 | 88.2 |
| Cc1cc(N2CCOCC2)cc2[nH]c(-c3c(NC[C@@H](O)c4cccc(Cl)c4)cc[nH]c3=O)nc12 + O=C1NC(=O)/C(=C/c2ccc(-c3ccc(F)cc3O)o2)S1 [AS252424] (first compound 1 µM, partner dose 5 µM) | 70.6 | 87.4 | 98.3 | 80 | 91.3 | 91.6 | 90 | 76.7 | 89.8 | 113 | 82.7 | 74.5 | 80.7 | 83 | 96 | 70.2 | 110 | 115 | 46.7 | 59.1 |
